# Test results published in paper PMC4336329 (PLoS ONE, 2015).
# About 14,000 (4.5%) of roughly 310,000 compounds showed an effect of 50% or more. The effect is printed as a negative number. This is one part of the list.
# Molecular target: human ether-à-go-go-related gene (hERG) potassium channel (human, UniProt Q12809)
# Assay: primary screen, population patch clamp on CHO cells stably expressing hERG
# 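Note: peak tail current of the secondary pulse compared with the same well before compound.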
# Chain of human ether-à-go-go-related gene (hERG) potassium channel (Q12809 whole entry, looked up): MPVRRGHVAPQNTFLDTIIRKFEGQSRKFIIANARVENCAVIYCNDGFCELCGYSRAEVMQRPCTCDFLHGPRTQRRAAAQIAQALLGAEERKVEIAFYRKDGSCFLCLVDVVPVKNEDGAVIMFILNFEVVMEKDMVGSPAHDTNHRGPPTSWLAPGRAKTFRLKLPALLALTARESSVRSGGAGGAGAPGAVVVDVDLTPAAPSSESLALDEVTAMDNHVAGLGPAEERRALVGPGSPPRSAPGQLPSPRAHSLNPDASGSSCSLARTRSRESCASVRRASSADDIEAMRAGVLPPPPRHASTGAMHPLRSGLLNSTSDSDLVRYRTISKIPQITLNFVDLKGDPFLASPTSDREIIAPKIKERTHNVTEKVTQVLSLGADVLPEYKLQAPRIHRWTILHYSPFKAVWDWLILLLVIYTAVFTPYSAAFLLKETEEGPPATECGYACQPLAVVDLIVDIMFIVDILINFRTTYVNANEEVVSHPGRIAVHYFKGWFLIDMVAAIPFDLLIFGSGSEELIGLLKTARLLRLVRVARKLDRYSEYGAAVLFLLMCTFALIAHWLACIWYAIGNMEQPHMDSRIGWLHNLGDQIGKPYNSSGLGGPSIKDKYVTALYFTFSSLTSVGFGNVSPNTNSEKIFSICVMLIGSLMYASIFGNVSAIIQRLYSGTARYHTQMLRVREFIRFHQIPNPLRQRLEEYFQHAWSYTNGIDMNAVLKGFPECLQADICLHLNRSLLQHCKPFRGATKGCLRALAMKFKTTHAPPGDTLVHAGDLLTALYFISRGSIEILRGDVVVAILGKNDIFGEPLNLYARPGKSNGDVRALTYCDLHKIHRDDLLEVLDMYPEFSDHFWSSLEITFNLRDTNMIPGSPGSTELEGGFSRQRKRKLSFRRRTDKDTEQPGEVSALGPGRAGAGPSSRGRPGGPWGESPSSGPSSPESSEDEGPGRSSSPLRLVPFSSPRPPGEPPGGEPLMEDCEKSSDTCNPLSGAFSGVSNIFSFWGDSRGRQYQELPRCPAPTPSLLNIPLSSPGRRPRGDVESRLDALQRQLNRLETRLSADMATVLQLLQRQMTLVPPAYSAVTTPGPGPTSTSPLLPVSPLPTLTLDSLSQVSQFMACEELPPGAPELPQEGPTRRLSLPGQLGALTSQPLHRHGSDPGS
row,SMILES,"hERG current change (%, negative = inhibition) at 10uM"
1,COC(=O)C1CCN(C(=O)COC(=O)CC(NC(C)=O)c2ccccc2)CC1 (stereo not drawn),9.35%
2,CCc1c(C)sc(NC(=O)c2cc(CC(C)C)on2)c1C#N,11%
3,C=C1CCC(OC(C)=O)C2(C)CCC3C(C)C(=O)OC3C12O (stereo not drawn),14.4%
4,Cc1n[nH]c(C)c1S(=O)(=O)N1CCCCCC1,-13.9%
5,Cc1nn(C)cc1S(=O)(=O)N1CCN(Cc2ccc(F)cc2Cl)CC1,-15%
6,CCSc1ncc(Cl)c(C(=O)Nc2cc(C)ccc2C)n1,9.9%
7,O=C(NCCCN1CCOCC1)C(=O)N/N=C/c1cccc2ccccc12,-27%
8,O=c1oc2ccccc2n1Cn1c(=O)oc2ccccc21,14.4%
9,O=c1cc(O)c(-c2ccccc2Cl)c(Cl)[nH]1,8.23%
10,COc1ccccc1C(=O)COC(=O)CSC(C)C(=O)Nc1cc(C)on1 (stereo not drawn),-13.7%
11,COc1ccc(Cc2nc(-c3ccccn3)no2)cc1,-10.3%
12,Cc1ccc(S(=O)(=O)NC(=O)Nc2c(C)n(C)n(-c3ccccc3)c2=O)cc1,3.33%
13,Cc1ccc(S(=O)(=O)N2[C@@H](c3ccc(F)cc3)C(C(=O)O)=CC[C@H]2c2cccs2)cc1,-1.43%
14,O=C(CN1C(=O)C2CCCCC2C1=O)Nc1ccc(OC(F)F)c(Cl)c1 (stereo not drawn),-2.68%
15,COCCNc1nc(-c2cc(C)c(C)cc2C)cs1.Cl,-17.3%
16,O=C(Nc1ncccn1)C12CC3CC(CC(C3)C1)C2,5.07%
17,O=C(Nc1nnc(Cc2ccccc2F)s1)Nc1ccccc1F,17%
18,CN(C)S(=O)(=O)c1ccc(N2CCCC2)c(C(=O)NC(c2ccccc2)c2ccccc2)c1,6.73%
19,Cc1cccc(NS(=O)(=O)c2ccc(C(=O)NCC(C)(C)N3CCOCC3)cc2)c1C,-33.8%

row,SMILES,"hERG current change (%, negative = inhibition) at 10uM"
1,COc1ccc(CC(=O)Nc2ccccc2C(=O)N2CCOCC2)cc1,13.6%
2,Cc1ccccc1N1C(=O)c2sc3nc4c(c(=O)n3c2C1=O)CCC4,-7.23%
3,CCCOc1ccc(/C=C2\SC(=S)N(CC3CCCO3)C2=O)cc1 (stereo not drawn),16.9%
4,COC(=O)[C@@]12CCCCN1[C@H](c1ccc(-c3cccc(Cl)c3)c(OC)c1)[C@@H]1C(=O)N(C)C(=O)[C@@H]12.O=C(O)C(F)(F)F,22%
5,Cc1ccc(C(=O)OCC(=O)Nc2ccc(S(N)(=O)=O)cc2)c(O)c1,5.87%
6,Oc1ccc(-c2[nH]ncc2-c2nc3ccccc3s2)c(O)c1,23.5%
7,CCOC(=O)CCC(=O)N(CCN(C(=O)CCC(=O)OCC)c1ccccc1)c1ccccc1,1.97%
8,COc1ccc(/C=C/C(=O)NC(=S)Nc2ccccc2)cc1OC,4.21%
9,CC(=O)c1cc(-c2ccccc2)n(CCC(=O)NC2CCCCC2)c1C,5.92%
10,O=C(NCCCNC(=O)c1ccco1)c1ccc(F)cc1,10.4%
11,CC(C)(C)c1ccc(-c2noc(CNC(=O)c3ccco3)n2)cc1,-8.2%
12,O=C(Nc1ncn[nH]1)c1ccc(Cl)c(S(=O)(=O)Nc2ccc(Cl)cc2)c1,1.55%
13,COc1ccc(Cl)cc1-c1n[nH]c(=S)n1C1CCCCC1,9.11%
14,CCC1=[N+](CC(=O)c2ccc(C)cc2)CCn2c(C)ccc21.[Br-],-3.75%
15,NS(=O)(=O)c1cccc(NC(=O)COC(=O)C2CCCCC2)c1,4.42%
16,O=C(Cc1c(F)cccc1Cl)Nc1ccccc1-c1ccccc1,3.51%
17,Cc1ccc(-n2ncc3c(NCC4CCCO4)ncnc32)c(C)c1 (stereo not drawn),12.9%
18,CC(=O)c1cccc(Oc2ncccn2)c1,27.7%
19,COc1cccc(-c2nc3cc(C)ccc3o2)c1,15.2%

row,SMILES,"hERG current change (%, negative = inhibition) at 10uM"
1,O=C(/C=C/c1cccs1)NC(=S)Nc1ccc(C(=O)O)cc1,6.78%
2,O=C(O)c1[nH]c(=O)[nH]c(=O)c1F,19.6%
3,CCCC(C)C(=O)Nc1ccc2c(c1)OCCO2 (stereo not drawn),-3.74%
4,O=C(O)c1ccccc1C(=O)OCCc1cc2ccccc2c(=O)o1,10.4%
5,O=C(CC1C(=O)NCCN1Cc1c(F)cccc1Cl)NCc1ccccc1 (stereo not drawn),17.1%
6,Cc1ccccc1-c1nnc(SCC(=O)NCC2CCCO2)o1 (stereo not drawn),5.02%
7,CCCC(=O)N1CCc2cc(OC)c(OC)cc2C1c1cc2cc3c(cc2[nH]c1=O)OCO3 (stereo not drawn),-0.887%
8,CCc1ccc(C(c2ccc(CC)cc2)C(Cl)Cl)cc1,21.3%
9,CC1CC[C@@]2(OC1)O[C@H]1CC3[C@@H]4C[C@@H](O)[C@@]5(O)C[C@@H](O)[C@H](O)C[C@]5(C)[C@H]4CC[C@]3(C)[C@H]1[C@@H]2C (stereo partly drawn),8.38%
10,Cc1ccc(-c2noc(CSc3nnnn3-c3ccccc3)n2)cc1,17.6%
11,COc1ccc(OC)c(S(=O)(=O)N2CCC(C(=O)N3CCN(Cc4ccccc4)CC3)CC2)c1,-4.4%
12,O=C(NCc1ccccc1)N1CCN(c2ccccc2F)CC1,1.22%
13,CCN(CCCNC(=O)COc1cc(=O)n(C)c2ccccc12)c1cccc(C)c1,-51%
14,CCOc1ccccc1NC(=O)CN(C)S(=O)(=O)c1cnc[nH]1,28.4%
15,Clc1nc(-c2ccccc2)cc(-c2ccc(Br)cc2)n1,-32.2%
16,OCCN1CCOCCN(CCO)CCN(CCO)CC1,3.8%
17,COc1ccc(-n2c(C)cc(C(=O)CN3CCC(C)CC3)c2C)cc1,-21%
18,COc1ccccc1C(=O)NNC(=O)c1ccc2ccccc2c1,-22.9%
19,CCn1c(SCc2nc3ccccc3c(=O)[nH]2)nnc1-c1ccncc1,-11.7%
